Test results as given in patent US20230218776A1, “ANTI-NTB-A ANTIBODIES AND RELATED COMPOSITIONS AND METHODS” (SEAGEN INC., priority 2015, published 2023).

Key:
Type in all cases: cell-based
Raji cell line = assay: Complement-dependent cytotoxicity (CDC), Sytox Green; conditions: 0.02-50 μg/mL, human serum, 2 hours
Description: (§1) Complement-Dependent Cytotoxicity (CDC): Normal human T cells (All Cells, Alameda, Calif.) or cancer cell lines (ATCC, Manassas, Va.) were labelledlabeled with 5 μM Sytox Green (Life Technologies, Grand Island, N.Y.), then bound with serial a serial dose titrations of anti-human NTB-A h20F3 antibody or PBD dimer ADCies (0.02-50 μg/mL) in RPMI1640 media+1020% human serum (Complement Technology, Tyler, TX or Solomon Park Research Laboratories, Kirkland, Wash. Cells were incubated at 37° C., 5% CO2 for 2 hours, and fluorescence from lysed cells was measured with an Envision plate reader (Perkin Elmer, Waltham, Mass.). Data was expressed as a percentage of maximum cell lysis determined with a positive control of 1% TritonX-100-treated cells (Sigma, ST. Louis, Mo.).
(§2) Three cell types were used for analysis: normal human T cells, WIL2-S cells, and Raji cells. Expression of relevant receptors on each cell type is found in Table 7 and is indicated as number of receptor per cell.

WIL2-S cell line [1] = assay: as above; conditions: 0.02-50 μg/mL, human serum, 2 hours
Description: as §1, §2

Normal human T cells = assay: ADCC, flow cytometry-based assay with NK effector cells; conditions: NK effector to target 10:1, 4 hours
Description: A flow cytometry-based assay was used to measure ADCC activity on normal human T cells. PKH2-labeled normal human T cell targets were bound with titrations of antibody (0.1 ng/mL-10 μg/mL) and then incubated with effector NK cells at an effector to target ratio of 10:1 for 4 hours at 37° C., 5% CO2. Viability was determined by 7-AAD incorporation as measured on the FACsCalibur flow cytometer (BD BioSciences, San Jose, Calif.).

WIL2-S cell line [2] = assay: ADCC, chromium-51 release with NK effector cells; conditions: NK effector to target 10:1, 4 hours
Description: Antibody-Dependent Cellular Cytotoxicity (ADCC) Activity Assay: ADCC cytotoxic activity was measured by chromium-51 release in which effector natural killer (NK) cells kill (lyse) target cells via binding to the antibody or ADC on the target cells. WIL2-S cells were labeled with chromium-51, bound with antibody (0.1 ng/mL-10 μg/mL), and then incubated with NK cells at an effector to target ratio of 10:1 for 4 hours at 37° C., 5% CO2. Supernatant was removed to a filter plate and chromium-51 counts were measured with a TopCount (Perkin Elmer, Waltham, Mass.). Data was expressed as a percentage of maximum specific cell lysis determined with a positive control of 1% TritonX-100-treated cells (Sigma, St. Louis, Mo.).

B1: h20F3ec: humanized 20F3 HDLD antibody with cysteine at the 239 position (ec variant) (antibody)
heavy: QIQLVQSGSELKKPGASVKVSCKASGYTFTNYGMNWVRQAPGQDLKWMGWINTYSGEPRYADDFKGRFVFSLDKSVNTAYLQISSLKAEDTAVYYCARDYGRWYFDVWGQGTTVTVSS[sequence of human IgG1 constant region with changes omitted]
light: QIVLSQSPATLSLSPGERATMSCRASSSVSHMHWYQQKPGQAPRPWIYATSNLASGVPARFSGSGSGTDYTLTISSLEPEDFAVYYCQQWSSTPRTFGGGTKVEIKRTVAAPSVFIFPPSDEQLKSGTASVVCLLNNFYPREAKVQWKVDNALQSGNSQESVTEQDSKDSTYSLSSTLTLSKADYEKHKVYACEVTHQGLSSPVTKSFNRGEC
Raji cell line
  CDC Maximum % Specific Cell Lysis: 3.3 ± 0.7%
WIL2-S cell line [1]
  CDC Maximum % Specific Cell Lysis: 0.14 ± 0.2%
Normal human T cells
  ADCC Maximum % Specific Cell Lysis: 40 ± 0.6%
WIL2-S cell line [2]
  ADCC Maximum % Specific Cell Lysis: 25 ± 2.4%
